{"source": "patent US5840936A", "about": "“Aminosterol compounds useful as inhibitors of the sodium/proton exchanger (NHE)” (priority 1995, dated 1998)", "test_system": "L1210 lymphoblastic leukemia", "assay": "Mouse model of L1210 leukemia", "settings": "in vivo", "data": [{"smiles": "CC(C)[C@@H](CC[C@@H](C)[C@H]1CC[C@H]2[C@@H]3[C@H](O)C[C@H]4C[C@@H](NCCCNCCCCNCCCN)CC[C@]4(C)[C@H]3CC[C@]12C)OS(=O)(=O)O", "note": "[Compound 1436]", "values": [{"measurement": "Hematological profile", "result": "near normal hematocrit, with evidence of a robust granulocyte count"}]}]}
